Among all 300,000 compounds or so, about 22,000 (7.3%) were called active. The inconclusive results got no clear call from the source; some entries with a clear call stand among them for comparison. No stated cut-off is given here; in the data, active means activity score below about -60%; inconclusive means mostly about -28% to -61%; inactive means positive scores.
Assay: Activators via SNCA 5'UTR binding, MLPCN (AID 1814)
Details: alpha-synuclein 5'UTR reporter, activators screen; stronger effect = lower value; tested at 7.5 µM

Activity score, active:
CCOC(=O)Nc1ccc2c(COC(=O)c3ccccc3O)cc(=O)oc2c1 -83.4%
COc1ccc(-c2cc3ccc(O)cc3oc2=O)cc1 -63.6%
Cc1[nH]nc2c1C(c1ccc(-c3ccc(Cl)cc3)o1)C(C#N)=C(N)O2 (stereo not given) -63%
CC1CCc2nc3sc4c(c3c(N)c2C1)CCCC4 (stereo not given) -132%
Cc1ccc(C(=O)NNC(=O)c2ccco2)cc1 -69.2%
COCc1nc(-c2ccc(-c3ccc(OC)cc3)nc2OC)no1 -123%
Cc1cccn2c(CN(C)CCC3CCCCO3)c(C(=O)N3CCCCC3)nc12 (stereo not given) -68.8%
N#CCCN1CCN(C(=S)c2ccc(-c3cccc(Cl)c3)o2)CC1 -89.3%
NC(=S)Cc1nc(-c2ccc(Cl)cc2)cs1 -104%
CCn1cc(C(=O)NC(=S)Nc2ccccc2[N+](=O)[O-])cn1 -94.1%
CCOc1ccc(-c2nnc(-c3ccncc3)o2)cc1 -63.2%
Cc1cc(C(=O)COC(=O)C2=COCCO2)c(C)n1-c1cccc(F)c1 -156%
COc1cc(/C=N/N=C2/NC(=O)C(CC(=O)O)S2)ccc1OCc1ccc(Cl)cc1 (stereo not given) -149%
CC(=O)c1cccc2c(O)c(C3=Nc4ccccc4C3=O)[nH]c12 -122%
Brc1ccc(-c2noc(-c3ccccc3)n2)o1 -80.6%
CCc1ccc(C2CC(c3ccco3)=NN2S(C)(=O)=O)cc1 (stereo not given) -88.5%
O=C(Nc1ccccn1)c1cccs1 -113%

Activity score, inactive:
CCOc1ccc2c(c1)OC(c1ccc(OC)cc1)(C(F)(F)F)NC2=O (stereo not given) 96.1%
O=c1cc(CNc2cc(C(F)(F)F)cc(C(F)(F)F)c2)nc2sccn12 65.2%
CCOc1ccc(-c2cc(CCCC(=O)Nc3cc(OC)ccc3OC)no2)cc1 82.6%
C/C(=N\NC(=O)c1nnn(-c2nonc2N)c1CN1CCc2ccccc21)c1ccccc1O 75.2%
C#CC[N+](C)(C)CCCCCCCCCCCC 77%
NC(=O)c1cc(Br)cc(C2CCCCC2)c1O 86.8%
CC(C)(C)C(=O)Nc1ccc(NC(=O)c2ccco2)nc1 102%
O=C(CNC(=O)c1ccccc1Br)N/N=C/c1cc(Br)ccc1O 69.6%
C=CCOc1nc(-c2ccccc2Cl)nc2ccccc12 72.1%
Cc1csc(NC(=O)c2ccc(N3CCCC3=O)cc2)n1 101%
Cc1ccc2nc(NNC(=O)c3ccc(S(=O)(=O)N4CCc5ccccc5C4)cc3)sc2c1 96%
Nc1ccc(Oc2ccccc2-c2ccccc2)cc1 104%
O=S(=O)(Nc1nc2ccccc2nc1N1CCc2ccccc2C1)c1ccc(Cl)cc1 86.2%
CC(=O)c1ccc(NC(=O)c2noc3c2CCC3)cc1 71.5%
CCOC(=O)C1CCN(C(=O)CCc2c(C)nc3cc(-c4ccccc4)nn3c2C)CC1 66.5%
CCOC(=O)N1CCN(S(=O)(=O)c2ccc(C(=O)Nc3ccc(F)cc3F)cc2)CC1 69.5%

Activity score, inconclusive:
COc1cccc(NC(=O)NCc2ccccc2F)c1 -52.1%
CCn1c(/C=C/c2ccccc2)nc2ccccc2c1=O -55.1%
CC(=O)CCC(=O)N1CCCC(CNC(=O)c2ccc(-c3ccccc3)cc2)C1 (stereo not given) -57.3%
CCOC(=O)c1sc2ncnc(NCC(c3cccs3)N(C)C)c2c1C (stereo not given) -58.2%
CC(C)(O)c1[nH]c2cc(C(F)(F)F)ccc2c1C(C)(C)O -51.3%
C/C(=N\NC(=O)c1ccc2c(c1)OCO2)c1ccco1 -57.9%
CCCCCOC(=O)c1ccc(OC(=O)c2cncc(Br)c2)cc1 -60.5%
CC(C)N=C1NN=C(c2ccc(F)cc2)CS1 -46.3%
CC(=O)c1ccc(NC(=O)COC(=O)c2ccccc2Nc2ccccc2)cc1 -59.1%
C=CCOc1ccc(C2c3c(oc4ccccc4c3=O)C(=O)N2CCCN2CCOCC2)cc1 (stereo not given) -59.6%
CN(C(=O)Nc1ccc(C(C)(C)C)cc1)C1CCCCC1 -34.7%
O=C(Cc1ccc(Cl)c(Cl)c1)NC1CCCCCC1 -50.8%
COc1ccc(NC(=S)N(Cc2ccc(Cl)cc2)Cc2ccc(C(=O)O)cc2)cc1Cl -50.4%
CCc1ccc(NCc2cc3c(C)nn(-c4ccccc4)c3[nH]c2=O)cc1 -32.9%
CC(=O)c1cccc(OCc2cc(C(=O)NCc3nc(C)c(C)s3)no2)c1 -53%
C=CCSc1nc(C)cc(/C=C\c2ccccc2)c1C#N -34.9%
COC(=O)CN1C(=O)[C@H]2[C@@H](c3ccc(C)o3)N3C(=O)CN(Cc4ccccc4)C(=O)[C@@]3(Cc3ccccc3)[C@H]2C1=O -43.1%
O=C(NCCCN1CCc2ccccc2C1)Nc1ccc(Br)cc1 -44.3%
O=C(NCCC1=CCCCC1)c1ccc(Cl)c(S(=O)(=O)N2CCOCC2)c1 -43.3%
COc1ccc2cc(CCl)c(Cl)nc2c1 -59.2%
Cn1c(SCC(=O)c2cc(Cl)c(Cl)s2)nnc1-c1ccco1 -51.1%
O=[N+]([O-])c1ccccc1Nc1c2ccccc2nc2ccccc12 -38.2%
COc1cc(/C=C/C(=O)OCC(=O)Nc2sc3c(c2C#N)CCC(C)C3)ccc1OCC#N (stereo not given) -38.1%
O=C(NCCc1ccco1)c1cc(COc2cccc(C(F)(F)F)c2)on1 -36.9%
O=C(NCCCNC1CCCCC1)c1ccc(/C=N/O)nc1 -56%
CSc1cccc2sc(NC(=O)C3=COCCO3)nc12 -58.5%
CCOc1ccc(NS(=O)(=O)c2ccc(-c3ccc(=O)[nH]n3)o2)cc1 -55.2%

Source: PubChem BioAssay AID1814 (Broad Institute, 2009)
